# Reference: the BET-seq Pho4 binding data (Le et al. 2018)
# The list shows a part of the results. The energies were worked out here from pooled read counts, against the library average; single values are noisy.
# Target: T1, Pho4 (S. cerevisiae) (UniProt P07270)
# T1 sequence: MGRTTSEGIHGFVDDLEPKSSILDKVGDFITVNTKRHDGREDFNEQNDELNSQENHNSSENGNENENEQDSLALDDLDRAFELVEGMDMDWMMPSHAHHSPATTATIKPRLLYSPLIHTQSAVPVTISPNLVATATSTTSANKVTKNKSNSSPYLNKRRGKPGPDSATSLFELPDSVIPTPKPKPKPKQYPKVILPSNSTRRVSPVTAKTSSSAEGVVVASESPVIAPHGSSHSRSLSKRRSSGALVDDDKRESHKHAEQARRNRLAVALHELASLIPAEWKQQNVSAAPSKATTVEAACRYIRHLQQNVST
# Assay: relative binding free energy (BET-seq); higher = weaker binding
# Conditions: reference: library average
row,Sequence,relative binding free energy [kcal/mol]
1,TCTAACACGTGGTAGG,0
2,CTATTCACGTGTAGGT,0.14
3,TGGGACACGTGGGGAT,-0.1
4,TTCGGCACGTGCGTTT,-0.16
5,GCTGACACGTGAAGTG,0.45
6,GATTCCACGTGTATGT,0.18
7,AATAGCACGTGAGGCT,0.24
8,TGCTTCACGTGCGAGT,0.28
9,TTTTGCACGTGTAGCG,0.09
10,AGTGACACGTGCTGGA,-0.15
11,TATCCCACGTGTGGGG,-0.05
12,TGTCTCACGTGGGAAT,0.3
13,ACTAGCACGTGTGTGG,-0.02
14,CTTTGCACGTGGTCTG,-0.14
15,CGGAGCACGTGGGTAG,-0.34
16,TCGTACACGTGTTGGT,0.15
17,GGGTTCACGTGAAGGT,0.42
18,TATAGCACGTGTTGTT,-0.05
19,GTAAACACGTGTTGGG,0.1
20,GGGGTCACGTGGCGTC,-0.05
21,TGTGTCACGTGAACTA,0.24
22,ACAAGCACGTGGTATG,-0.1
23,ATGTGCACGTGGTTTG,-0.06

row,Sequence,relative binding free energy [kcal/mol]
1,TGCGGCACGTGTGTTG,-0.06
2,CGGCGCACGTGGTAGT,-0.12
3,TTTAGCACGTGCTGGG,-0.14
4,TTGGGCACGTGTAGCG,0
5,AGTGGCACGTGGGTCA,-0.19
6,GTTTTCACGTGGTAAC,0.3
7,TGGTTCACGTGTTGTG,0.17
8,CTATGCACGTGTATTT,-0.12
9,CTGTGCACGTGATGCT,0.13
10,TTTTTCACGTGGTTGT,0.33
11,GTGTGCACGTGCCGGG,-0.09
12,GGGATCACGTGTGGGT,0.22
13,CGGCGCACGTGGGAGA,-0.11
14,TGTGCCACGTGTGAGG,-0.15
15,GTGGTCACGTGAAGGG,0.42
16,GGGGACACGTGAGGGT,0.35
17,TATCTCACGTGGAGTT,0.1
18,TTACACACGTGCGGTT,-0.02
19,TGGGACACGTGGTGAA,0.05
20,AGGCTCACGTGTATTA,0.29
21,GTATGCACGTGGACTG,0.05
22,GCTTACACGTGTAGGT,0.16
23,TTGATCACGTGGATAA,0.13

row,Sequence,relative binding free energy [kcal/mol]
1,ACTGTCACGTGGTATG,-0.03
2,GAATGCACGTGGGGGG,-0.18
3,ATTATCACGTGTCGGT,0.2
4,GCCGTCACGTGGTGTT,-0.01
5,GCGGGCACGTGGGCTA,-0.21
6,ATTTGCACGTGAGATT,0.23
7,TGATGCACGTGTGTAT,0.03
8,ATGAGCACGTGGTGGA,-0.13
9,CGTCTCACGTGTGGTT,0.2
10,TGAGTCACGTGTTGCT,0.02
11,GTTTACACGTGAGCGG,0.43
12,ATCGTCACGTGTACTT,0.35
13,TACAGCACGTGATTGG,0.23
14,TTTCTCACGTGGATTA,0.21
15,TGGGACACGTGCGATT,0.2
16,CAGGTCACGTGGAGGT,0.03
17,GTTAGCACGTGGATTC,0.1
18,ATGCACACGTGCGGGG,-0.02
19,GTATGCACGTGTTTCT,-0.09
20,CATAGCACGTGGTAGT,-0.1
21,TGAGGCACGTGGTTAC,-0.15
22,ATAGTCACGTGGCGGG,-0.05
23,GCTAGCACGTGGTGCG,-0.11

row,Sequence,relative binding free energy [kcal/mol]
1,TTTTTCACGTGCTGAT,0.32
2,GGGCACACGTGATGGT,0.32
3,CTGCGCACGTGTGGGG,-0.15
4,CTAGTCACGTGATTTG,0.21
5,AGGGCCACGTGGGATA,-0.09
6,AGGAGCACGTGGGACG,-0.1
7,GGGTGCACGTGTGAAC,0.17
8,TTGATCACGTGATGGA,0.32
9,GGTGACACGTGGCGTT,0.09
10,AGGAACACGTGGTTTT,0.06
11,TTTCTCACGTGTTAAA,0.23
12,CATGTCACGTGGAGGG,-0.13
13,ATGAACACGTGTGCGT,0.08
14,GAATGCACGTGGATGG,-0.03
15,TATAGCACGTGGTATG,-0.24
16,GTAATCACGTGTTCTG,0.22
17,TATCTCACGTGGGGGG,0.07
18,TTAGGCACGTGTGAAG,0.01
19,TTCAGCACGTGTAGTT,-0.18
20,GTCTGCACGTGGTTGG,0.06
21,GGTTTCACGTGAAATA,0.31
22,ATTACCACGTGAAGTG,0.31
23,TAGTTCACGTGATTAT,0.31

row,Sequence,relative binding free energy [kcal/mol]
1,CTAGGCACGTGGGCTA,-0.1
2,TAGTGCACGTGAACGT,0.21
3,TATAGCACGTGGTTAG,-0.27
4,TGCTTCACGTGGGAGG,0.27
5,GTGTTCACGTGCGGAG,0.28
6,AAGGTCACGTGAGTCG,0.21
7,TAATGCACGTGTATTC,0.22
8,GGGGACACGTGGGGAT,-0.05
9,CTAGTCACGTGTGGAA,0.17
10,CTTTGCACGTGTCGGT,0.08
11,TTCTTCACGTGGTACT,0.16
12,TATATCACGTGTGCTT,0.08
13,CGGGGCACGTGAAGTG,0.25
14,GTCTGCACGTGTAGGT,0.16
15,GTGGTCACGTGTCGAG,0.14
16,TGTATCACGTGTTATA,0.1
17,CGGCACACGTGTAGGA,0.27
18,AGCTTCACGTGTTGGC,0.25
19,TAGAGCACGTGGAGTA,-0.08
20,TATGTCACGTGAGGTA,0.31
21,GGTATCACGTGAACGT,0.32
22,TGAATCACGTGACGGT,0.47
23,TTCTTCACGTGGATAT,0.2
